From PubChem BioAssay (NCATS)
The inconclusive results got no clear call from the source; some entries with a clear call stand among them for comparison. For some of these results: Potencies of inconclusive entries are doubtful fits and often do not repeat. Activity calls are given as the source filed them. Unless noted, calls follow the shape of the dose curve; as a rule, active = well fitted curve in the direction sought with a large enough effect; inconclusive = small, poorly fitted or top-dose-only effect, or another doubt; inactive = no such curve, though single readings can be large; an effect the other way counts as inactive or inconclusive.

Key:
[1] = Cell Viability - Jurkat (AID 426;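 active = dose-dependent loss of cell ATP signal giving a full or clear fitted curve, ranked by lower potency value; inconclusive = weak partial curve or response only at the top dose; inactive = no loss of viability signal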; also: potency is read from the fitted curve at half-maximal effect); conditions: qHTS
Outline: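 Cells of the human T-cell leukemia line Jurkat (E6-1) are seeded at 5000 per well, treated with compound across a concentration range for 40 hours at 37 °C, then lysed with CellTiter-Glo; luminescence reports ATP.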

[2] = Cell Viability - SK-N-SH (AID 435; calls by dose curve;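 also: potency is read from the fitted curve at half-maximal effect; compound exposure lasted 40 h at 37 °C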); conditions: SK-N-SH neuroblastoma cell viability qHTS
Outline: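 Human neuroblastoma line, 40 h exposure at 37 °C, ATP quantified via luciferase luminescence; DMSO and 100 uM tamoxifen define 0 and 100% inhibition for AC50 fitting.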

[3] = target: Mitogen-activated protein kinase 10 (Mus musculus) (UniProt Q61831); assay: JNK3 AlphaScreen Assay (AID 530; active = well fitted curve in either direction with a large enough effect, not every such curve was filed as active; inconclusive = small, poorly fitted or top-dose-only effect, or another doubt;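 also: kinase came from lysate of stimulated human HepG2 cells; signal reports phosphorylation of biotinylated GST-cJun 1-79 at Ser73 with 10 µM ATP; % is scaled to controls: 0 for no effect and ±100 for the full control effect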); conditions: JNK3 lysate, c-Jun phosphorylation; activity change, negative = inhibition: at 57.1 µM (top of the series)
Outline: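 qHTS titrations with 15 min compound pre-incubation before adding ATP (10 uM final). Read-out: AlphaScreen of Ser73-phosphorylated biotin-GST-cJun using HepG2 lysate JNK3 activated by IL-1β and TNFα.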

[4] = Cell Viability - Renal Proximal Tubule (AID 545); conditions: renal proximal tubule cells viability, primary cells of rat origin; activity change, negative = cytotoxicity: at 91.7 µM (top of the series);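 also: 0% = DMSO only and -100% = 100 µM tamoxifen; nearly all actives have a fitted effect of over 40% in size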
Outline: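 In this qHTS format, normal rat kidney-derived proximal tubule cells in complete culture medium receive compound titrations, then sit 40 hours at 37 °C before luciferase-based ATP quantitation; potency is reported as AC50 from concentration-response curves.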

[5] = Cell Viability - LYMP2-001 (AID 921); also: potency is read from the fitted curve at half-maximal effect; nearly all actives have a fitted effect of over 70% in size
Outline: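 A lymphoblastoid cell line of human origin was treated with library compounds across a concentration series for 24 hours, and viable cell number was estimated from ATP-driven luciferase light output. Hill modeling gave AC50.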

[6] = MultiTox-Fluor Cytotoxicity Assay - LYMP1-001 - Live Cells (AID 947); also: potency is read from the fitted curve at half-maximal effect
[7] = MultiTox-Fluor Cytotoxicity Assay - LYMP1-003 - Live Cells (AID 962);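 also: potency is read from the fitted curve at half-maximal effect; cells exposed to compound for 16 hours at 37 °C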
Outline: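 Acute cytotoxicity is scored as a drop in live-cell protease activity in human lymphoblastoid LYMP1-003 cells after 16 hr compound exposure at 37 C. AC50 values come from Hill-equation modelling of concentration-response data.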

[8] = Cell Viability - LYMP1-003 - Assay at 24 hr (AID 963); also: potency is read from the fitted curve at half-maximal effect
Outline: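 Cytotoxicity is scored as a concentration-dependent fall in ATP-linked luciferase signal in human lymphoblastoid LYMP1-003 cells treated 24 hr at 37 C in complete culture medium.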

[9] = Cell Viability - LYMP1-003 - Assay at 40 hr (AID 964); also: potency is read from the fitted curve at half-maximal effect; nearly all actives have a fitted effect of over 60% in size
Outline: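 Luminescent ATP signal (CellTiter-Glo) served as the viability read-out after 40 hr compound treatment of human lymphoblastoid LYMP1-003 cells at 37 C. Decreases in ATP were fitted with the Hill equation to give AC50.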

[10] = Cell Viability - LYMP2-009 (AID 968); also: potency is read from the fitted curve at half-maximal effect; nearly all actives have a fitted effect of over 55% in size
[11] = Cell Viability - LYMP2-015 (AID 971); also: potency is read from the fitted curve at half-maximal effect; nearly all actives have a fitted effect of over 55% in size
Outline: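 Cells are seeded at 2500 per well and incubated 5 hr at 37 C. Compounds are added across a concentration series for 24 hr at 37 C. CellTiter-Glo is added, and luminescence is read after 30 min at room temperature.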

[12] = Cell Viability - LYMP2-019 (AID 973);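 also: 0% = DMSO alone and full effect = 92 µM tetraoctylammonium bromide; nearly all actives have a fitted effect of over 55% in size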
Outline: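 Cytotoxicity is scored as a concentration-dependent drop in cellular ATP after cells (2500/well) receive compound for 24 hr at 37 C. Tetraoctylammonium bromide serves as positive control.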

[13] = Cell Viability - LYMP2-025 (AID 976); conditions: LYMP2-025 lymphoblastoid cell viability; activity change, negative = cytotoxicity: at 92.2 µM (top of the series);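 also: plate controls were DMSO only for no effect and tetraoctylammonium bromide control for full effect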
Outline: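 Acute cytotoxicity is scored as a concentration-dependent fall in intracellular ATP, measured by luciferase luminescence, in human lymphoblastoid LYMP2-025 cells exposed to compound for 24 hours at 37 C. AC50 values come from standard Hill fits.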

[14] = Cell Viability - LYMP2-010 (AID 981); also: potency is read from the fitted curve at half-maximal effect; nearly all actives have a fitted effect of over 55% in size
Outline: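 Steps: seed 2500 LYMP2-010 cells per well; incubate 5 hr at 37 C; add compound; incubate 24 hr at 37 C; add CellTiter-Glo, wait 30 min at room temperature; read luminescence. Concentration-response fitted to Hill equation for AC50.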

[15] = Cell Viability - LYMP2-022 (AID 987)
Outline: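 Cells were seeded at 2500 per well, rested 5 hr at 37 C, and treated with titrated compounds for 24 hr at 37 C. Cellular ATP was then quantified by luciferase luminescence, and AC50 values were derived from Hill-modelled concentration-response curves.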

[16] = Cell Viability - LYMP2-024 (AID 988); conditions: LYMP2-024 lymphoblastoid cell viability; activity change, negative = cytotoxicity: at 92.2 µM (top of the series); also: potency is read from the fitted curve at half-maximal effect; nearly all actives have a fitted effect of over 60% in size
Outline: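 qHTS cytotoxicity, human lymphoblastoid line, complete medium; 24 h cpd treatment, 37 C; CellTiter-Glo ATP luminescence readout; tetraoctylammonium bromide positive control; AC50 via Hill fit.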

[17] = Cell Viability - LYMP1-002 - Assay at 40 hr (AID 994); also: potency is read from the fitted curve at half-maximal effect; nearly all actives have a fitted effect of over 60% in size
Outline: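 Cells are plated at 2500 per well and rested 5 hr at 37 C. Compounds are added and incubated 40 hr at 37 C. CellTiter-Glo reagent is added for 30 min at room temperature before luminescence is read.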

[18] = target: Glucocorticoid receptor (Homo sapiens) (UniProt P04150); assay: qHTS assay for small molecule antagonists of glucocorticoid receptor signaling (AID 588533; active = well fitted inhibition curve with a large enough effect in the signal ratio, with a control signal flat, not every such curve was filed as active; inconclusive = small, poorly fitted or top-dose-only effect, or effect the other way, or a change in a side signal; the % refers to the signal ratio;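 also: cells stimulated with 2 nM dexamethasone as agonist; % is scaled to controls: 0 for no effect and ±100 for the full control effect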); conditions: HeLa MMTV-bla, GRE beta-lactamase ratio, antagonist mode, 18 h; activity change, negative = inhibition: at 76.8 µM (top of the series)
[19] = target: Vitamin D3 receptor (Homo sapiens) (UniProt P11473); assay: qHTS assay for small molecule antagonists of vitamin D receptor signaling (AID 588541; calls by dose curve;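 also: receptor activated by calcitriol during compound treatment; % is scaled to controls: 0 for no effect and ±100 for the full control effect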); conditions: HEK293T VDR-UAS-bla, beta-lactamase ratio, antagonist mode; activity change, negative = inhibition: at 76.7 µM (top of the series)
UniProt P11473, sequence (P11473 whole entry, looked up): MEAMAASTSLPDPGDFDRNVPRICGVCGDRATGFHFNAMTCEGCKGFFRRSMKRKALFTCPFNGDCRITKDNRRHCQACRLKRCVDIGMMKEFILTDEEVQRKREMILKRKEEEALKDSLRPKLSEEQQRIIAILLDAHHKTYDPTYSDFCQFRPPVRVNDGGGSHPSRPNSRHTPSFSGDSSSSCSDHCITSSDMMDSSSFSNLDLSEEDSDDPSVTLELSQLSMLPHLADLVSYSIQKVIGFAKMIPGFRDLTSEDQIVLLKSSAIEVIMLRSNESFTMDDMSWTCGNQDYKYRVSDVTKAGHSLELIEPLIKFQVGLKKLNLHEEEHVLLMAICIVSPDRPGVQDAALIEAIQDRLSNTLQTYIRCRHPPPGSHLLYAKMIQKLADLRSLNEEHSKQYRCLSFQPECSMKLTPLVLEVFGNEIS

[20] = target: Tumor necrosis factor (Homo sapiens) (UniProt P01375); assay: qHTS assay to identify small molecules that stimulate Tumor Necrosis Factor-alpha (TNF-alpha) secretion (AID 651757; active = well fitted curve in the direction sought with a large enough effect in the signal ratio; inconclusive = small, poorly fitted or top-dose-only effect, or a change in a side signal; inactive = no such curve, though single readings can be large or run the other way; the % refers to the signal ratio; also: 0% is about no effect); conditions: Human cells, HTRF 665/615 ratio; activation (TNF-alpha secretion): at 92.2 µM (top of the series)
UniProt P01375, sequence (P01375 whole entry, looked up): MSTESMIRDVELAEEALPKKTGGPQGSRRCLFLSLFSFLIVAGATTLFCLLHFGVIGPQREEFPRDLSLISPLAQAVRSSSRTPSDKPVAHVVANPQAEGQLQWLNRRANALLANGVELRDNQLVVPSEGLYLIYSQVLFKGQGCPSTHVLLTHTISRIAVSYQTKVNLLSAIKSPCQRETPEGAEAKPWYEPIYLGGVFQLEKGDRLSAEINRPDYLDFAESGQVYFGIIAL
Outline: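 Human monocytic THP-1 cells are plated, treated with compound and held at 37 C for 17 hrs. Labeled anti-TNF-alpha antibody mixture is then added; after 3 hr at room temperature, TR-FRET signal reports secreted TNF-alpha.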

[21] = qHTS assay to identify small molecules that stimulate interleukin-8 (IL-8) secretion (AID 651758; active = well fitted activation curve with a large enough effect in the signal ratio; inconclusive = small, poorly fitted or top-dose-only effect, or effect the other way, or a change in a side signal; the % refers to the signal ratio; also: 0% is about no effect); conditions: HTRF ratio (665/615); activation: at 92.2 µM (top of the series)
Outline: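 Secreted IL-8 measured homogeneously by TR-FRET (two labelled anti-IL-8 antibodies, 1-3 h at room temperature) after a 16 h, 37 C compound treatment of THP-1 cells at 2000 cells/well.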

[22] = qHTS assay for small molecule agonists of the antioxidant response element (ARE) signaling pathway measured by Nrf2-dependant transcriptional activity (AID 720636; active = well fitted curve in the direction sought with a large enough effect in the repeat runs; inconclusive = weak or mixed curves; inactive = no such curve, though single readings can be large; an effect the other way counts as inactive or inconclusive; also: potency is read from the fitted curve at half-maximal effect)
Outline: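 HepG2 ARE-luc reporter line, 1% dialyzed FBS; 6 hr attachment at 37 C, compound pinned in, 16 hr at 37 C/5% CO2; ONE-Glo, 30 min RT, luminescence read.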
Tags tell the direction and shape of the fitted curve.

Nc1ccc(N)c(Cl)c1
inconclusive: Potency [1] 120 µM [partial curve] | Potency [2] 102 µM [single point] | activity change, negative = cytotoxicity [4] -79.8% | Potency [5] 15.8 µM [cytotoxic, full curve, poor fit] | Potency [6] 31.6 µM [cytotoxic, partial curve] | Potency [7] 15.8 µM [cytotoxic, partial curve] | Potency [8] 39.8 µM [cytotoxic, partial curve] | Potency [10] 50.1 µM [cytotoxic, partial curve] | Potency [11] 7.94 µM [cytotoxic, full curve, poor fit] | activity change, negative = cytotoxicity [13] -31.8% [cytotoxic] | Potency [14] 25.1 µM [cytotoxic, partial curve] | Potency [16] 50.1 µM [cytotoxic, partial curve, poor fit] | Potency [17] 39.8 µM [cytotoxic, partial curve] | activity change, negative = inhibition [18] -17.5% | activation (TNF-alpha secretion) [20] 1.46% | activation [21] 32.3% | Potency [22] 11.9 µM [activator, full curve, poor fit]
active: Potency [9] 39.8 µM | Potency [15] 39.8 µM
inactive: Potency [3] | Potency [12] | Potency [19]
